The results in this text go back to paper PMC6919601, “Identification of Plasmodium dipeptidyl aminopeptidase allosteric inhibitors by high throughput screening” (PLoS ONE, 2019).

Among all 110,000 compounds or so, about 230 (0.21%) showed an effect of 50% or more. Some of the results follow.
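Further: 30 min substrate incubation versus DMSO and 10 µM JCP410 controls.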

This assay deals with DPAP1 (Plasmodium falciparum, UniProt Q8IIJ9). Put plainly: primary screen, percent inhibition; read by cleavage of a fluorogenic dipeptide substrate; higher = more effect of the substance. Also on record: species or system P. falciparum D10 trophozoite lysates; single well.
Sequence of DPAP1 (Q8IIJ9 whole entry, looked up): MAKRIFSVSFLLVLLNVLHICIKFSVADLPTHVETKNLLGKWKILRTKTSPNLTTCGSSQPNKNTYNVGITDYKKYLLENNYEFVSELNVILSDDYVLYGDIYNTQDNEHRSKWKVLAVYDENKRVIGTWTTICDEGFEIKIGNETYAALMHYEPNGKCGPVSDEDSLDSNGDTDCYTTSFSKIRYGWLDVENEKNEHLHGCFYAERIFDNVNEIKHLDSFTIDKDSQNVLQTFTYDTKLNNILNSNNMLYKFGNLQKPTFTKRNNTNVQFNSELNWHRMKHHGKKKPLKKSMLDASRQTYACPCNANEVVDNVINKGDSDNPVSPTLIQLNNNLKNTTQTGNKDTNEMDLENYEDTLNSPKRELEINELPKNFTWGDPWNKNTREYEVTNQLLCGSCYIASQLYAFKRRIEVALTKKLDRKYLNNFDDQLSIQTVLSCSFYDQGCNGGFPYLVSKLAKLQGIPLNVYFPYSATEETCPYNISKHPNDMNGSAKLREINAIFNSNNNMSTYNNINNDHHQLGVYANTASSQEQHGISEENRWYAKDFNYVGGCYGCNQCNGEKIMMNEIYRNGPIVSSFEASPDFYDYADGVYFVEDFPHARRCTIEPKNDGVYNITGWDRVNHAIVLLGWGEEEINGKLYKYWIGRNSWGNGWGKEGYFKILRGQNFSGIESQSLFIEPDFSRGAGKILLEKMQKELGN
On to `Cc1cc(C(=O)OCCN2CCN(C3=NS(=O)(=O)c4ccccc43)CC2)c2ccccc2n1`, for which the “% Inhibition @ 10 uM” value is on record as 0.275%.

For `COC(=O)[C@H](Cc1ccccc1)NC(=O)[C@@H]1CCCN1C#N`, the “% Inhibition @ 10 uM” value came to 6.4%.

With `COc1ccc(OC)c(NC(=O)c2c(-c3c(Cl)cccc3Cl)noc2C)c1`, the “% Inhibition @ 10 uM” value is reported as 4.59%.

In the case of `COc1ccc(C2C3=C(O)CCCC3=Nc3nc(SCC(C)C)nn32)cc1OC` (stereo not shown), the “% Inhibition @ 10 uM” value was 1.22%.

On to `CCOC(=O)C(C(=O)OCC)(N1CCOCC1)N1CCOCC1`, for which the “% Inhibition @ 10 uM” value is -3.75%.

`CC(C)CCn1c(=O)c2ccccc2n2c(CCC(=O)NCc3ccccc3)nnc12`: the “% Inhibition @ 10 uM” value is 0.277%.

Consider `NC(=O)C1CCN(c2nc(-c3cccc4ccccc34)cs2)CC1`, for which the “% Inhibition @ 10 uM” value is given as 1.92%.

Take `O=C(Cn1cnc2sc3c(c2c1=O)CCCC3)NCc1ccccc1Cl`: the “% Inhibition @ 10 uM” value is given as -2.87%.

For `Cc1c2c(n(C)c1-c1ccccc1)C(c1ccccc1)Oc1ccccc1-2` (stereo not shown), the “% Inhibition @ 10 uM” value is recorded as 5.48%.

Regarding `O=C(O)/C=C/C(=O)NCc1ccc(Cl)c(Cl)c1`, the “% Inhibition @ 10 uM” value is -0.256%.

On to `CCCSc1nnc(-c2ccccc2Cl)o1`, for which the “% Inhibition @ 10 uM” value amounted to 2.22%.

With `CCOc1cc(CN2CCN(c3ccc(Cl)cc3)CC2)ccc1O`, the “% Inhibition @ 10 uM” value is -4.35%.

With `OCC1OC(Oc2ccc(Cl)cc2)C(O)C(O)C1O` (stereo not shown), the “% Inhibition @ 10 uM” value is -2.18%.

`CCOc1ccc(OCc2ccc(C(=O)N3CCCC(C)C3)cc2)cc1` (stereo not shown): the “% Inhibition @ 10 uM” value is given as -1.33%.

As to `CC(C)NC(=O)COc1ccc(-c2ccc(C#N)cc2)cc1`, the “% Inhibition @ 10 uM” value is recorded as 0.907%.

On to `Cc1ccc(C2C=C(c3ccc(Cl)cc3OC(F)F)Nc3ncnn32)cc1` (stereo not shown), for which the “% Inhibition @ 10 uM” value is recorded as 3.45%.

With `Cc1ccc2nc(CC(C)(C)CC(=O)O)c[n+]([O-])c2c1`, the “% Inhibition @ 10 uM” value is recorded as -1.05%.

`C#CCn1c(-c2ccco2)nc2ccccc21`: the “% Inhibition @ 10 uM” value is recorded as -2.28%.

In the case of `N=C(NC(=O)c1cccc(Cl)c1)Nc1nc2ccccc2s1`, the “% Inhibition @ 10 uM” value is 1.91%.

For `CC1=C(C(=O)NCCN(C)C)C2(CCCCCC2)OC1=O`, the “% Inhibition @ 10 uM” value is reported as -1.07%.

In the case of `Cc1ccc(C2C=C(c3ccc(Cl)cc3)Nc3ncnn32)cc1` (stereo not shown), the “% Inhibition @ 10 uM” value was -9.11%.

Regarding `O=C(NCCN1CCCC1)c1cc(-c2ccncc2)nc2ccc(S(=O)(=O)N3CCOCC3)cc12`, the “% Inhibition @ 10 uM” value is -0.971%.

In the case of `CC(=O)NC(C)(C)COc1ccc(Cl)cc1`, the “% Inhibition @ 10 uM” value is 1.98%.

For `Cc1cc(N2CCC(O)CC2)nc2cc(Cl)ccc12`, the “% Inhibition @ 10 uM” value is reported as -5.48%.

`COc1ccc(-c2ccc(C#N)c(SCC(=O)Nc3ccccc3F)n2)cc1OC`: the “% Inhibition @ 10 uM” value turned out to be 4.28%.

In the case of `COc1ccc(NC2=NC(=O)C(Cc3ccccc3)C(=O)N2)cc1` (stereo not shown), the “% Inhibition @ 10 uM” value is -3.76%.

Consider `O=C(Cc1ccccc1)NCCc1nc2ccccc2n1Cc1ccccc1F`, for which the “% Inhibition @ 10 uM” value is given as -3.48%.

With `COc1cc(-c2nnc3sc(COc4ccc(C(C)(C)C)cc4)nn23)cc(OC)c1OC`, the “% Inhibition @ 10 uM” value is given as 8.94%.

Consider `C(#CCN1CCN(CC#CCOCc2ccccc2)CC1)COCc1ccccc1`, for which the “% Inhibition @ 10 uM” value is reported as 3.43%.

With `CCOC(=O)/C(C#N)=C/c1c(Oc2ccc(Br)cc2)nc2ccccn2c1=O`, the “% Inhibition @ 10 uM” value is listed as -6.23%.

With `CN1C(=O)C(O)(CC(=O)c2ccc(Br)cc2)c2ccccc21` (stereo not shown), the “% Inhibition @ 10 uM” value is on record as 0.83%.

For the compound `COc1cc(C(=O)NCc2ccccn2)cc(OC)c1OC`, the “% Inhibition @ 10 uM” value is -21.4%.

On to `COc1ccc(CCn2c(SCC(=O)Nc3cc(C)[nH]n3)nc3ncccc3c2=O)cc1OC`, for which the “% Inhibition @ 10 uM” value was found to be 3.32%.

For `Cc1ccc(C(C)C)c(OCCN2C(=O)c3ccccc3C2=O)c1`, the “% Inhibition @ 10 uM” value is -3.04%.

On to `CCOC(=O)N1CCN(C2=Cc3ccccc3Sc3ccccc32)CC1`, for which the “% Inhibition @ 10 uM” value is listed as 13.7%.

On to `CC(C)C[C@H](NC(=O)OCc1ccccc1)c1nc(C(=O)NNC(=O)[C@H](Cc2ccc3ccccc3c2)NC(=O)OCc2ccccc2)cs1`, for which the “% Inhibition @ 10 uM” value was -5.64%.

With `CN1CCN(C(=O)c2ccc(CNS(=O)(=O)c3ccc(Br)cc3)cc2)CC1`, the “% Inhibition @ 10 uM” value is -5.22%.

`CCS(=O)(=O)N1CCC2(CC1)OC(=O)C(C)=C2C(=O)NCCc1ccc(C)cc1`: the “% Inhibition @ 10 uM” value is on record as -6.67%.

Take `O=S(=O)(c1ccc(-c2csc(Nc3cccc(C(F)(F)F)c3)n2)cc1)N1CCCC1`: the “% Inhibition @ 10 uM” value is -2.21%.

`Cc1cc(NCCO)nc2ccccc12`: the “% Inhibition @ 10 uM” value was -1.96%.

On to `Cc1onc(-c2c(Cl)cccc2Cl)c1C(=O)NCc1cccnc1`, for which the “% Inhibition @ 10 uM” value is listed as 8%.

`Clc1ccc(N2CCN(Cc3ccc(Br)cc3)CC2)cc1`: the “% Inhibition @ 10 uM” value is on record as -3.65%.

For `O=C(Nc1nc2ccc(F)cc2s1)c1nc(S(=O)(=O)Cc2ccc(F)cc2)ncc1Cl`, the “% Inhibition @ 10 uM” value is recorded as -4.54%.

As to `CCC1CCCCN1C1=C(Cl)C(=O)N(c2ccc(OC)cc2)C1=O` (stereo not shown), the “% Inhibition @ 10 uM” value is listed as -0.996%.

As to `N#CC1=C(N)Oc2[nH]nc(-c3ccccc3)c2C1c1ccccc1` (stereo not shown), the “% Inhibition @ 10 uM” value was -0.413%.

`COCCOC(=O)C1=C(N)Oc2c(oc(CO)cc2=O)C1c1c(F)cccc1Cl` (stereo not shown): the “% Inhibition @ 10 uM” value was -5.36%.

`Cc1cc(C)cc(-n2c(C)cc(/C=C3\SC(=O)NC3=O)c2C)c1`: the “% Inhibition @ 10 uM” value is 1.67%.

Take `Cc1ccc(N2C(=O)c3cccc4c(Cl)ccc2c34)cc1`: the “% Inhibition @ 10 uM” value is on record as 1.13%.

In the case of `COc1ccc(CN2CCCC(O)C2)c(C)c1C` (stereo not shown), the “% Inhibition @ 10 uM” value was -1.07%.
